Measurements taken from the supplement of paper PMC10338343.
± gives the standard deviation. The entries are a selection whose mix differs from that of the whole data set.

system: MIWI (PIWIL1) piRISC loaded with L1MC piRNA (30 nt); experiment: pre-steady-state target cleavage rate (min^-1); MIWI and MILI are mouse PIWI proteins and EfPiwi is from a freshwater sponge; tags in brackets are library labels; higher = faster piRNA-guided slicing of the target; details: guide: L1MC piRNA 5'p-UAACUAAAUACUAUGCAAGCUGUAGGUCCU; auxiliary factor: 500 nM mouse GTSF1
How it was run: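 The pre-steady-state cleavage rate was obtained by Cleave-'n-Seq with a burst-and-steady-state fit. A transcribed, DNA-blocked target RNA library (0.1 nM) was mixed with 1 nM active affinity-purified piRISC carrying one synthetic guide, with or without 500 nM GTSF1 partner protein, in HEPES–potassium acetate buffer at 33 °C for 0–8 or 0–960 min. Uncleaved targets were sequenced and normalised to depth and to weakly complementary targets, with three trials pooled and k3 capped at 0.0001 min^-1.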

Sequence | pre-steady-state target cleavage rate
AGGACCUACAGCAAGCAUAGUAUUUACAAA | 0.555 ± 0.086
UCCUGGAUGUCGUUGCAUGGUAUUUAGUUA | 0.00724 ± 0.0025
UCCACCUACAGCUUCCAUAGUAUUUACUUA | 0.0591 ± 0.022
UGGACCUACAGCUUGCAUAGUUAUUAGAAA | 0.0545 ± 0.014
UCCUGGAAGAGCUUCCAUAGUAUUUAGUUA | 0.255 ± 0.058
UCCUGGAUCAGCUUGCGAUAGUAUUUAGUUA | 0.00597 ± 0.0041
UCCUGGAUCAGCUUGCAUUGUAUUUUCAAA | 0.0122 ± 0.0052
UCCUGGAACAGCUUGCAUAGUAUAAACAAA | 0.18 ± 0.043
UCCUGCUACAGGUUGCAUAGUAUUUACAAA | 0.117 ± 0.028
UCCUGCUACAGCUUCCAUAGUAUUUAGUAA | 0.0488 ± 0.017
UGGACCUACAGCUUGGUAAGUAUUUAGUAA | 0.00984 ± 0.0043
UCCUGGAUCAGCUUCCAAAGUAUUUAGUUA | 0.0843 ± 0.0099
UCCUCCUACAGCUUCCAUACUAUUUAGUUA | 0.0394 ± 0.015
UCCUGGAUGUCCAAGCAUAGUAUUUAGUAA | 0.00855 ± 0.0048
UCCACCUAGUGCUUGCAUAGUAUUUUCAAA | 0.0568 ± 0.012
UCCACCUACAGCUUGCAUACUAUUUUCAAA | 0.178 ± 0.034
UCCUGGUACAGCUUGCAUACUAUUUUCAAA | 0.0442 ± 0.014
UCGACCUACAGCUUGCAUUCUAUUUAGAAA | 0.137 ± 0.039
UCCUGGAACAGCAACCAUAGUAUUUAGUUA | 0.017 ± 0.0031
UCCUGGAACAGCUUGCAUAGUAUUAACAAA | 0.29 ± 0.051
UCCUGGUACAGCUACCAUAGUAUUUAGUUA | 0.366 ± 0.05
AGGACCUACAGCUUGCAUUCUAUUUUCAAA | 0.132 ± 0.044
UCCUGGAUGAGGUUGCAUUGUAUUUAGUUA | 0.016 ± 0.0037
UCCACCUACAGCUUGCAUAGUUAAUUCAAA | 0.14 ± 0.046
